Source: the supplement of paper PMC4604168 (melanoma cell lines)
Some of the results follow. Repeats are few or missing, and single values can be far off.

Columns and labels:
Assay in all cases: cell count relative to DMSO control; melanoma cells; higher = more viable cells
Conditions in all cases: library dose: standard library concentration; 72 h
G361 = test system: G361
IPC-298 = test system: IPC-298
IST-MEL1 = test system: IST-MEL1
LB2518-MEL = test system: LB2518-MEL
LOXIMVI = test system: LOXIMVI
MEL-HO = test system: MEL-HO
MZ2-MEL = test system: MZ2-MEL
MeWo = test system: MeWo
RPMI7951 = test system: RPMI7951
RVH-421 = test system: RVH-421
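Further: cells treated in 1,536-well plates, then fixed and DAPI-stained, with nuclei counted from automated high-throughput microscope images.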

SMILES	cell count (G361)	cell count (IPC-298)	cell count (IST-MEL1)	cell count (LB2518-MEL)	cell count (LOXIMVI)	cell count (MEL-HO)	cell count (MZ2-MEL)	cell count (MeWo)	cell count (RPMI7951)	cell count (RVH-421)
O=C(/C=C/c1cccnc1)NCCCCC1CCN(C(=O)c2ccccc2)CC1 + O=S(=O)(c1ccccc1)N(CC(F)(F)F)c1ccc(C(O)(C(F)(F)F)C(F)(F)F)cc1 [T0901317] (first compound 0.05 µM, partner dose 7 µM)	5.08%	35.2%	69.1%	55.1%	84.5%	40%	33.8%	98.2%	88.7%	80.2%
O=C(/C=C/c1cccnc1)NCCCCC1CCN(C(=O)c2ccccc2)CC1 + Cn1cncc1[C@@](N)(c1ccc(Cl)cc1)c1ccc2c(c1)c(-c1cccc(Cl)c1)cc(=O)n2C [tipifarnib] (first compound 0.05 µM, partner dose 0.05 µM)	5.69%	42.3%	69.4%	82.7%	50.7%	51%	56.9%	88.1%	68.9%	29.2%
Cc1ccc(Nc2nccc(N(C)c3ccc4c(C)n(C)nc4c3)n2)cc1S(N)(=O)=O [Pazopanib] + Cn1sc(=O)n(Cc2ccccc2)c1=O [TDZD-8] (first compound 2 µM, partner dose 2 µM)	80.2%	67.7%	89.2%	61.4%	116%	93.1%	61.3%	82.9%	53.3%	105%
O=C(/C=C/c1cccnc1)NCCCCC1CCN(C(=O)c2ccccc2)CC1 + O=c1cc(-c2cccc3c2Sc2ccccc2S3)oc(N2CCOCC2)c1 [KU55933] (first compound 0.05 µM, partner dose 5 µM)	4.08%	23.1%	55.5%	53.8%	159%	34.3%	24.5%	92.7%	65.6%	47.1%
CC1(C)CCC(c2ccc(Cl)cc2)=C(CN2CCN(c3ccc(C(=O)NS(=O)(=O)c4ccc(N[C@H](CCN5CCOCC5)CSc5ccccc5)c(S(=O)(=O)C(F)(F)F)c4)cc3)CC2)C1 + Cn1c(Nc2ccc(C(F)(F)F)cc2)nc2cc(Oc3ccnc(-c4ncc(C(F)(F)F)[nH]4)c3)ccc21 [CHIR265] (first compound 2 µM, partner dose 0.4 µM)	2.34%	37.7%	62.9%	2.56%	17.7%	30.1%	22.1%	48.7%	15.3%	3.48%
Cc1ccc(Nc2nccc(N(C)c3ccc4c(C)n(C)nc4c3)n2)cc1S(N)(=O)=O [Pazopanib] + C[C@]1(O)C[C@@H](c2nc(-c3ccc4ccc(-c5ccccc5)nc4c3)c3c(N)nccn32)C1 [OSI906] (first compound 2 µM, partner dose 2 µM)	71.1%	63.1%	89%	72.1%	93.2%	94.5%	56.8%	73.5%	57.6%	71.1%
Cc1ccc(Nc2nccc(N(C)c3ccc4c(C)n(C)nc4c3)n2)cc1S(N)(=O)=O [Pazopanib] + CN(C)S(=O)(=O)c1ccc2c(c1)/C(=C/c1cc3c([nH]1)CCCC3)C(=O)N2 [SU6656] (first compound 2 µM, partner dose 2 µM)	59.4%	61.5%	66%	75.9%	76.4%	71.3%	91.4%	71.9%	46.9%	89.9%
CC1(C)CCC(c2ccc(Cl)cc2)=C(CN2CCN(c3ccc(C(=O)NS(=O)(=O)c4ccc(N[C@H](CCN5CCOCC5)CSc5ccccc5)c(S(=O)(=O)C(F)(F)F)c4)cc3)CC2)C1 + CS(=O)(=O)c1ccc(C(=O)Nc2ccc(Cl)c(-c3ccccn3)c2)c(Cl)c1 [vismodegib] (first compound 2 µM, partner dose 5 µM)	69.4%	85.3%	66%	73%	44.1%	57.4%	73.8%	77.8%	29.3%	82%
O=C(/C=C/c1cccnc1)NCCCCC1CCN(C(=O)c2ccccc2)CC1 + Cc1cc(Nc2cc(N3CCN(C)CC3)nc(/C=C/c3ccccc3)n2)n[nH]1 [ENMD2076] (first compound 0.05 µM, partner dose 0.2 µM)	3.14%	20.3%	71.8%	57.7%	72.7%	32.8%	27.5%	85.8%	77.7%	24.2%
O=C(/C=C/c1cccnc1)NCCCCC1CCN(C(=O)c2ccccc2)CC1 + CN(C)S(=O)(=O)c1ccc2c(c1)/C(=C/c1cc3c([nH]1)CCCC3)C(=O)N2 [SU6656] (first compound 0.05 µM, partner dose 2 µM)	5.98%	46.3%	59.1%	74.6%	74.9%	43.1%	46.2%	105%	64.6%	19.2%
CC1(C)CCC(c2ccc(Cl)cc2)=C(CN2CCN(c3ccc(C(=O)NS(=O)(=O)c4ccc(N[C@H](CCN5CCOCC5)CSc5ccccc5)c(S(=O)(=O)C(F)(F)F)c4)cc3)CC2)C1 + C[C@@H](Oc1cc(-c2cnn(C3CCNCC3)c2)cnc1N)c1c(Cl)ccc(F)c1Cl [Crizotinib] (first compound 2 µM, partner dose 1 µM)	74.1%	94%	69.4%	52.4%	78.7%	56%	80.9%	69.3%	38.1%	58%
O=C(/C=C/c1cccnc1)NCCCCC1CCN(C(=O)c2ccccc2)CC1 + Clc1ccc(Nc2nnc(Cc3ccncc3)c3ccccc23)cc1 [vatalanib] (first compound 0.05 µM, partner dose 10 µM)	3.23%	25.4%	66.7%	73.9%	57%	40.3%	21.2%	74.5%	79.9%	36.2%
O=C(/C=C/c1cccnc1)NCCCCC1CCN(C(=O)c2ccccc2)CC1 + CCCCCCCCc1ccc(CCC(N)(CO)CO)cc1 [fingolimod] (first compound 0.05 µM, partner dose 10 µM)	0.618%	0.924%	5.71%	0.202%	3%	0.774%	0.444%	5.3%	0.975%	3.19%
CC1(C)CCC(c2ccc(Cl)cc2)=C(CN2CCN(c3ccc(C(=O)NS(=O)(=O)c4ccc(N[C@H](CCN5CCOCC5)CSc5ccccc5)c(S(=O)(=O)C(F)(F)F)c4)cc3)CC2)C1 + CC(=O)c1c(C)c2cnc(Nc3ccc(N4CCNCC4)cn3)nc2n(C2CCCC2)c1=O [palbociclib] (first compound 2 µM, partner dose 0.2 µM)	52.8%	67.2%	54.9%	51.7%	48.5%	59.5%	58%	43.2%	30.9%	34.9%
O=C(/C=C/c1cccnc1)NCCCCC1CCN(C(=O)c2ccccc2)CC1 + Nc1ncn([C@H]2C[C@H](O)[C@@H](CO)O2)c(=O)n1 [decitabine] (first compound 0.05 µM, partner dose 0.5 µM)	1.82%	13%	19.7%	43.7%	81.6%	19.1%	12.9%	65.5%	70.2%	16.5%
O=C(/C=C/c1cccnc1)NCCCCC1CCN(C(=O)c2ccccc2)CC1 + Cc1ccc(Nc2nccc(N(C)c3ccc4c(C)n(C)nc4c3)n2)cc1S(N)(=O)=O [Pazopanib] (first compound 0.05 µM, partner dose 2 µM)	3.08%	27.8%	59.6%	37.3%	68%	40.6%	27.5%	82.2%	70.1%	21.4%
CC1(C)CCC(c2ccc(Cl)cc2)=C(CN2CCN(c3ccc(C(=O)NS(=O)(=O)c4ccc(N[C@H](CCN5CCOCC5)CSc5ccccc5)c(S(=O)(=O)C(F)(F)F)c4)cc3)CC2)C1 + Clc1ccc(Nc2nnc(Cc3ccncc3)c3ccccc23)cc1 [vatalanib] (first compound 2 µM, partner dose 10 µM)	32.6%	67.5%	25.1%	62.1%	20.3%	24.5%	48.9%	45%	17.8%	16.1%
Cc1ccc(Nc2nccc(N(C)c3ccc4c(C)n(C)nc4c3)n2)cc1S(N)(=O)=O [Pazopanib] + COc1ccc(C2=N[C@@H](c3ccc(Cl)cc3)[C@@H](c3ccc(Cl)cc3)N2C(=O)N2CCNC(=O)C2)c(OC(C)C)c1 [Nutlin-3] (first compound 2 µM, partner dose 0.5 µM)	60.8%	66%	97.4%	60.6%	52.7%	95.4%	60.9%	91.9%	59.6%	83.3%
CC1(C)CCC(c2ccc(Cl)cc2)=C(CN2CCN(c3ccc(C(=O)NS(=O)(=O)c4ccc(N[C@H](CCN5CCOCC5)CSc5ccccc5)c(S(=O)(=O)C(F)(F)F)c4)cc3)CC2)C1 + OCc1c[nH]c2ccccc12 [Indole-3-carbinol] (first compound 2 µM, partner dose 4 µM)	65.1%	84.8%	76.9%	84.5%	37.5%	53.2%	68.1%	94.7%	44.9%	67.5%
O=C(/C=C/c1cccnc1)NCCCCC1CCN(C(=O)c2ccccc2)CC1 + NCC(=O)Nc1ccc(-n2nc(C(F)(F)F)cc2-c2ccc3c(ccc4ccccc43)c2)cc1 [OSU03012] (first compound 0.05 µM, partner dose 5 µM)	5.53%	38.7%	58%		60.5%	38%		93.6%	115%	33.7%
CC1(C)CCC(c2ccc(Cl)cc2)=C(CN2CCN(c3ccc(C(=O)NS(=O)(=O)c4ccc(N[C@H](CCN5CCOCC5)CSc5ccccc5)c(S(=O)(=O)C(F)(F)F)c4)cc3)CC2)C1 + COc1ccc(COc2ccc(Cc3cnc(N)nc3N)cc2OC)cc1 [GW2580] (first compound 2 µM, partner dose 5 µM)	69.2%	90.8%	85.1%	89.7%	103%	69.9%	104%	90.6%	32.7%	57.2%
